Laboratory results taken from PubChem BioAssay AID1460 (National Center for Advancing Translational Sciences (NCATS), 2008).
The whole screen tested about 270,000 compounds, of which about 5,800 (2.1%) were called active. Inconclusive results, whose numbers are uncertain, are shown with a selection of clear calls. The call rests on the fitted dose curve; in most records, active means well fitted inhibition curve with a large enough effect; inconclusive means small, poorly fitted or top-dose-only effect; inactive means flat fitted curve, though single readings scatter. Potencies of inconclusive entries are doubtful fits and often do not repeat.

Molecular target: Microtubule-associated protein tau (Homo sapiens) (UniProt P10636)
UniProt P10636, sequence (P10636 whole entry, looked up): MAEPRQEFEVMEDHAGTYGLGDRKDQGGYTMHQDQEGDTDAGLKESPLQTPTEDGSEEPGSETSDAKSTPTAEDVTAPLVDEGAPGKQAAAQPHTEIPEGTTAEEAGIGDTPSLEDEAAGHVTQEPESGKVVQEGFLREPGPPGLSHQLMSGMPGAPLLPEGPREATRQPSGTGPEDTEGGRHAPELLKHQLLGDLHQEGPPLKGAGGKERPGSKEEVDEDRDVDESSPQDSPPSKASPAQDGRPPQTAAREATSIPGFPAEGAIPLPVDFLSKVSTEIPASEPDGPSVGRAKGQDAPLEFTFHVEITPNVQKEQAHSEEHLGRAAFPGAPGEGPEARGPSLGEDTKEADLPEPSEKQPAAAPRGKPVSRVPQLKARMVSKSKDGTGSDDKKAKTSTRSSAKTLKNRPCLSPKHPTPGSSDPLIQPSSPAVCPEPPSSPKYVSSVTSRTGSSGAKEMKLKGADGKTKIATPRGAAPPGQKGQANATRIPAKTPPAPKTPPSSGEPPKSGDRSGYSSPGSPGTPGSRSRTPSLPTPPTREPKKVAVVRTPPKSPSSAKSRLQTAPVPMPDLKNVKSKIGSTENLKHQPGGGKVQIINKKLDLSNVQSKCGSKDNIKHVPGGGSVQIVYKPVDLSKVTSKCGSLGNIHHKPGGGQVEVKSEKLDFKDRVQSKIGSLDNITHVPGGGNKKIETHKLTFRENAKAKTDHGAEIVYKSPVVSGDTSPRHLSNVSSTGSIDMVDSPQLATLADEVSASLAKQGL
Assay: qHTS for Inhibitors of Tau Fibril Formation, Thioflavin T Binding; further: nearly all actives have a fitted effect of over 55% in size
Details: recombinant tau K18 P301L (four-repeat tau fragment), heparin-induced fibrillization, ThT fluorescence; series mostly up to 57.4 µM; activity, negative = inhibition: at the top concentration
Outline: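 K18 P301L tau (15 uM + 0.24 uM Alexa 594-tagged), heparin 20 uM, NaOAc pH 7, 6 h 37 C; ThT 30 uM, 1 h RT, ex 450/em 510 nm.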
On the % scale 0 is the no-effect control and ±100 the full control effect; potency means the concentration at half of the fitted maximal effect; tags describe the fitted curve by direction and shape.

Q: `O=C(Nc1ccc(Cl)cc1)N(Cc1nnc2n1CCCCC2)c1ccccc1` was tested. Which Potency did it give?
A: inconclusive: 7.08 µM [inhibitor, single point]

Q: With `CCC(=O)N1c2ccc(S(=O)(=O)CCC(=O)NCc3ccc4c(c3)OCO4)cc2CC1C` (stereo not given) as the molecule, how does the “activity, negative = inhibition” value read?
A: inactive: 5.56%

Q: For `COc1ccc(-c2nc3sc(CCNC(=O)C(=O)Nc4cc(C)cc(C)c4)c(C)n3n2)cc1`, which Potency is on record?
A: inconclusive: 2.51 µM [inhibitor, full curve, poor fit]

Q: With `S=C(c1ccc(-c2ccc(Cl)c(Cl)c2)o1)N1CCOCC1` as the molecule, how does the Potency read?
A: active: 10 µM

Q: `COc1ccc(-c2n[nH]c(=S)n2N)c(OC)c1` was tested. Which “activity, negative = inhibition” value did it give?
A: inactive: 4.75%

Q: How did the “activity, negative = inhibition” value turn out when `N#Cc1ccc(C(=O)Nc2ccc(Cl)c(-c3nc4cc(Cl)ccc4o3)c2)c(F)c1` was run?
A: inactive: -11.3%

Q: For `O=c1[nH][nH]c(C(F)(F)F)c1C=NCc1cccs1`, which “activity, negative = inhibition” value is on record?
A: inactive: -2.09%

Q: For `COc1ccccc1CC(=O)N1CCN(c2ccc([N+](=O)[O-])cc2)CC1`, which Potency is on record?
A: inconclusive: 15.8 µM [inhibitor, partial curve]

Q: With `CN(C(=O)CCCOc1ccc2[nH]c(=O)ccc2c1)C1CCCCC1` as the molecule, how does the Potency read?
A: inactive

Q: Which “activity, negative = inhibition” value does the source give for `Nc1ncnc2c1ncn2[C@@H]1O[C@H](COP(=O)(O)OP(=O)(O)OC[C@H]2OC(O)[C@H](O)[C@@H]2O)[C@@H](O)[C@H]1O` (stereo not given in full) here?
A: inactive: -10.9%

Q: `C=CCNC(=O)COC(=O)c1ccc(C)c(NC(=O)c2ccco2)c1` was tested. Which Potency did it give?
A: inconclusive: 5.01 µM [activator, single point]

Q: With `COc1ccc(NC(=O)c2sc3nc(C)c(C(=O)Nc4ccc(C)cc4C)c(-c4ccc(Cl)cc4)c3c2N)cc1` as the molecule, how does the Potency read?
A: inconclusive: 2.51 µM [inhibitor, full curve]

Q: Which Potency does the source give for `Cc1ccc2nc(NCc3ccco3)c(C=NCc3ccco3)c(=O)n2c1` here?
A: inconclusive: 6.31 µM [inhibitor, partial curve]

Q: `CC#CCN1c2ccccc2[C@]23C[C@@H](C(=O)OC)N(C(=O)COCc4ccccc4)C2=NC(C(=O)OC)=C(C(=O)OC)[C@H]13` was tested. Which activity, negative = inhibition did it give?
A: inactive: -5.39% [at 11.5 µM]

Q: How did the Potency turn out when `CC(=O)NCC(=O)OCC(=O)N1c2ccccc2Sc2ccccc21` was run?
A: inconclusive: 31.6 µM [inhibitor, single point]

Q: With `CCOc1cccc2cc(-c3nc4sc(C(=O)Nc5ccc(C)cc5)c(C)c4c(=O)[nH]3)c(=O)oc12` as the molecule, how does the “activity, negative = inhibition” value read?
A: inactive: -8.14%

Q: For `CCN(CC(=O)Nc1ccc2c(c1)OCCO2)C(=O)/C=C/c1ccc(F)cc1`, which “activity, negative = inhibition” value is on record?
A: inactive: -1.57%

Q: With `CCCCOCCCNC(=O)c1ccc2c(c1)OCO2` as the molecule, how does the “activity, negative = inhibition” value read?
A: inactive: -6.24%

Q: Which Potency does the source give for `O=C(Nc1cccc(-c2nc3ncccc3o2)c1)c1ccc(-c2cccc(Cl)c2Cl)o1` here?
A: inconclusive: 3.98 µM [inhibitor, full curve]

Q: `O=C(Nc1ccccc1)c1cc(-c2ccccc2Cl)no1` was tested. Which “activity, negative = inhibition” value did it give?
A: inactive: -13.3%

Q: Which Potency does the source give for `COc1cccc(N2CCN(C(=S)NCCc3ccccc3)CC2)c1` here?
A: inconclusive: 1.78 µM [inhibitor, full curve, poor fit]

Q: With `CC(C)NC(=O)C1CC(=O)N(c2ccc(F)c(Cl)c2)C1` (stereo not given) as the molecule, how does the “activity, negative = inhibition” value read?
A: inactive: -3.26%

Q: Which “activity, negative = inhibition” value does the source give for `COc1ccccc1CNC(=O)c1cccn1-c1nnc(N2CCCC2)s1` here?
A: inactive: 5.13%

Q: How did the Potency turn out when `c1cc2c(cc1Nc1nc(-c3ccc4c(c3)OCO4)cs1)OCCO2` was run?
A: active: 3.16 µM

Q: Which “activity, negative = inhibition” value does the source give for `c1ccc(-c2nn3c(Cn4nnc5ccccc54)nnc3s2)nc1` here?
A: inactive: -18%

Q: `C=CCSc1nnc2nc3c(nn12)c1cc(C)ccc1n3CC=C` was tested. Which Potency did it give?
A: active: 28.2 µM

Q: How did the “activity, negative = inhibition” value turn out when `Cc1ccccc1NC(=S)NCc1cccs1` was run?
A: inactive: -6.05%

Q: For `COc1ccc(C(=O)NCC(c2cccnc2)N2CCN(c3ccc(F)cc3)CC2)cc1` (stereo not given), which Potency is on record?
A: inconclusive: 22.4 µM [inhibitor, single point]

Q: With `Cn1c(NNC(=O)c2cccc3ccccc23)cc(=O)n(C)c1=O` as the molecule, how does the Potency read?
A: inconclusive: 25.1 µM [inhibitor, single point]

Q: `Oc1ccccc1C=Nc1ccccc1-c1nc2ccccc2[nH]1` was tested. Which Potency did it give?
A: inconclusive: 15.8 µM [inhibitor, partial curve]

Q: How did the Potency turn out when `Cc1cccc(C(=O)N2CCN(c3ccc([N+](=O)[O-])c(NCc4ccco4)c3)CC2)c1` was run?
A: inconclusive: 10 µM [inhibitor, partial curve]

Q: `Cc1ccc(-n2[nH]c(C)c(C=Nc3ccc4[nH]c(=O)[nH]c4c3)c2=O)cc1` was tested. Which Potency did it give?
A: inconclusive: 14.1 µM [inhibitor, partial curve]

Q: With `CC(Oc1cccc(Cl)c1)C(=O)NCCCCc1ccccc1` (stereo not given) as the molecule, how does the Potency read?
A: inconclusive: 17.8 µM [inhibitor, single point]

Q: Which Potency does the source give for `O=C(Nc1nccs1)c1ccc2nccnc2c1` here?
A: inconclusive: 31.6 µM [inhibitor, single point]

Q: For `C[C@]1(C(=O)NCCc2c[nH]c3ccccc23)C=C[C@@H](Cc2ccccc2)N1C(=O)c1ccccc1`, which Potency is on record?
A: inconclusive: 17.8 µM [inhibitor, partial curve]

Q: For `COc1ccc(NC(=O)COC(=O)/C=C/c2ccccc2[N+](=O)[O-])cc1OC`, which Potency is on record?
A: inconclusive: 17.8 µM [inhibitor, partial curve]

Q: For `CN(c1ccc(C(=O)NCCSCc2ccco2)cc1)S(C)(=O)=O`, which Potency is on record?
A: inconclusive: 44.7 µM [inhibitor, single point]

Q: How did the Potency turn out when `CC(Cl)C(=O)c1ccc2c(c1)CCN2C(=O)C1CC1` (stereo not given) was run?
A: inconclusive: 20 µM [inhibitor, partial curve]

Q: How did the Potency turn out when `COc1ccc(N2CCN(C(=O)CSCc3nc(-c4ccccc4Cl)oc3C)CC2)cc1` was run?
A: inconclusive: 25.1 µM [inhibitor, partial curve]

Q: For `O=C(NCCc1ccc(Cl)cc1)c1cccn1-c1nnc(N2CCCCC2)s1`, which “activity, negative = inhibition” value is on record?
A: inactive: -8.5%

Q: With `Cc1cc(O)c(C(c2cccc(F)c2)N2CCC(C)CC2)c(=O)n1Cc1ccco1` (stereo not given) as the molecule, how does the Potency read?
A: inconclusive: 31.6 µM [inhibitor, single point]

Q: For `COc1ccc(CNC(=O)/C=C/c2ccccc2[N+](=O)[O-])cc1`, which “activity, negative = inhibition” value is on record?
A: inactive: -8.9%

Q: With `O=C(Nc1cccc(C(F)(F)F)c1)c1noc2c1CCc1ccccc1-2` as the molecule, how does the Potency read?
A: inconclusive: 1.78 µM [inhibitor, full curve]

Q: For `CCN(C(=O)c1cc2c(s1)-c1c(C)cccc1OC2)c1cc(C)ccc1C`, which Potency is on record?
A: inconclusive: 22.4 µM [inhibitor, partial curve]

Q: With `CCOC(=O)c1ccc(N2C(=O)c3n[nH]c(-c4cccs4)c3C2c2ccc(O)c(OC)c2)cc1` (stereo not given) as the molecule, how does the Potency read?
A: inconclusive: 17.8 µM [inhibitor, partial curve]
